Assay results published in PubChem BioAssay AID493208 (National Center for Advancing Translational Sciences (NCATS), 2011).
The campaign covered roughly 44,000 compounds. About 340 (0.77%) were called active. Not shown: some 5% with an inconclusive outcome. Calls follow the shape of the dose curve; as a rule, active = well fitted inhibition curve with a large enough effect; inconclusive = small, poorly fitted or top-dose-only effect; inactive = flat fitted curve, though single readings scatter. The list shows a part of the results.

Experiment: Acumen qHTS Assay for Inhibitors of the mTORC1 Signaling Pathway in MEF (Tsc2-/-, p53-/-) Cells: Sytravon;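 also: plate controls were DMSO for no effect and rapamycin for full effect; nearly all actives have a fitted effect of over 50% in size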
Conditions: phospho-rpS6 immunofluorescence/PI, 24 h; series mostly up to 38.3 µM; activity change, negative = inhibition: at the top concentration
Method in brief: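 Tsc2-/-, p53-/- mouse embryonic fibroblasts (empty-vector line) exposed to compound 24 hrs at 37 C, fixed, immunostained for phospho-rpS6 and counterstained with propidium iodide. Acumen laser scanning gives % positive cells from Alexa 488/PI ratio, thresholded using 7.5 nM rapamycin; PI count gives viability.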

Activity change, negative = inhibition, inactive:
Cc1nn(CC(=O)N2CCN(c3ccccc3)CC2)c(=O)c2cc3sccc3n12 4.15%, Cc1ccc(OCCn2c(COc3ccc(Cl)cc3)nc3ccccc32)cc1 -20.4%, CCC(C)NC(=O)Cn1cnc2sc(C)c(S(=O)(=O)N3CCN(c4ccccc4OC)CC3)c2c1=O (stereo unspecified) 5.42%, Cc1c(C(=O)Nc2cccc(Cl)c2)oc2ccc(S(=O)(=O)N3CCOCC3)cc12 7.87%, COc1cccc(NC(=O)N2CCC(CN3CCOCC3)CC2)c1 -2.6%, Cc1cccc(N2CCN(S(=O)(=O)c3c(C)nc4scc(C)n4c3=O)CC2C)c1 (stereo unspecified) 2.1%, Cc1ccc(CCNC(=O)CN2N=C(c3ccc(C)cc3)CCC2=O)cc1 -0.293%, CCc1ccccc1NC(=O)Cn1c(=O)ccc2cc(S(=O)(=O)N3CCC(C)CC3)ccc21 -1.39%, CC1CCN(C(=O)c2ccc(NC(=O)c3nsc4ccccc34)cc2)CC1 0.301%, CCOC(=O)c1sc(NC(=O)c2nc3nc(C)cc(C(F)F)n3n2)c(C(=O)OC)c1C 4.04%, CCOc1cccc(C2c3c(oc4cc(C)c(C)cc4c3=O)C(=O)N2c2nc(C)c(C)s2)c1 (stereo unspecified) 2.22%, COc1cccc(-c2cc(C(=O)Nc3cccnc3Cl)no2)c1 9.09%, Cc1ccc(NC(=O)CN2C(=O)C(C)(C)c3cc(S(=O)(=O)N4CCCCC4)ccc32)c(Br)c1 -5.58%, Cn1nc(C(=O)Nc2ccccc2C#N)c2c1-c1ccccc1SC2 1.03%, CCOc1ccc(Nc2oc(/C=C/c3cc(OC)c(OC)c(OC)c3)nc2C#N)cc1 -11.5%, O=C(COC(=O)c1cc(-c2cccs2)nc2ccccc12)c1ccc(Cl)cc1 1.37%, COc1cc(C(=O)NCCSc2c(C)[nH]c3ccccc23)cc(OC)c1OC -1.06%, COc1ccc(NC(=O)CN(C)S(=O)(=O)c2cnc[nH]2)cc1 0.18%, CCOc1ccc(NC(=O)CSc2nc3ccccc3c(=O)n2CCC(=O)NC2CCCCC2)cc1 -0.384%, O=C(NC1CC(=O)N(c2ccc(Cl)cc2)C1)C1CCCCC1 (stereo unspecified) 0.358%, COc1cccc(NS(=O)(=O)c2cc(-c3cnc(C4CC4)o3)ccc2C)c1 -9.68%, COc1ccc(-c2noc(C3CC(=O)N(c4ccc5c(c4)OCCO5)C3)n2)c(OC)c1 (stereo unspecified) -0.568%, COC(=O)c1c(NC(=O)/C(C#N)=C/c2ccc(OC)cc2)sc2c1C(C(=O)OC)CC2 (stereo unspecified) -8.29%, CCc1ccccc1NC(=O)[C@H](Cc1ccccc1)N1Cc2ccccc2C1=O 0.608%, COc1ccc(CCNC(=O)CSc2cn(CCNC(=O)c3ccc(OC)c(OC)c3)c3ccccc23)cc1OC -2.49%, Cc1cccc(C)c1NC(=O)CSc1nccn1C -1.04%, CCOc1ccc(CNC(=O)c2cccc(Nc3nc4ccccc4n4nnnc34)c2)cc1OC -23.8%, Cc1ccc(C)c(CN2C(=O)c3ccccc3S(=O)(=O)c3ccc(C(=O)N4CCN(Cc5ccccc5)CC4)cc32)c1 -15.9%, CC(C)Cn1c(SCc2cccc(F)c2)nc2ccsc2c1=O 0.243%, CCOc1ccc(NC(=O)c2oc3ccccc3c2NC(=O)C(C)Oc2ccccc2)cc1 (stereo unspecified) -10.4%, CC(=O)c1cc2c(cc1N/C(=N/S(=O)(=O)c1ccc(C)cc1)c1ccc(Cl)cc1)OCO2 -3.14%, O=C(CCn1c(=O)c2cccn2c2cccnc21)NCc1cccc(Br)c1 2.91%, Cc1ccc2c(=O)cc(C(=O)Nc3ccc(S(=O)(=O)N4CCCC(C)C4)cc3)oc2c1C (stereo unspecified) 1.7%, COc1ccc(-c2cn3c(n2)sc2cc(C(=O)NCc4ccccc4)ccc23)cc1 -3.04%, Cc1ccc(CNc2c(C)c(C)nc3nncn23)cc1 -5.85%, COc1ccc(OC)c(C2CC(=O)Nc3ccc4ccccc4c32)c1 (stereo unspecified) -25.9%, COc1ccc(Cc2nc3ccc(C(=O)NCCc4ccc(Cl)cc4)cc3o2)cc1 -0.876%, CCN(C(=O)CCS(=O)(=O)c1cc(Br)cc2c1N(C(=O)C1CC1)CC2)c1cccc(C)c1 -7.77%, Cc1ccc(C)c(C(=O)N2CCC(c3nc4c(nnn4Cc4ccccc4)c(=O)[nH]3)CC2)c1 -11.7%, COc1ccccc1C1=Nn2c(nc3sc(C(=O)Nc4ccccc4Cl)c(C)c3c2=O)SC1 -1.39%, CCOCCCn1c(SCC(=O)Nc2ccccc2OC)nc2c(oc3ccccc32)c1=O -2.73%, COc1ccc(C2c3cc(OC)c(OC)cc3CC(=O)N2c2cccc(C#N)c2)cc1 (stereo unspecified) 4.72%, CCOc1ccccc1N1CC(c2nc3ccccc3n2CCCCOc2ccccc2)CC1=O (stereo unspecified) 1.25%, CC(NC(=O)c1c(O)nc2ccccn2c1=O)c1ccccc1 (stereo unspecified) -5.84%, CCOC(=O)c1ccc(NC(=O)C2=C(C)C(=O)OC23CCN(C(C)=O)CC3)cc1 0.807%, CCOC(=O)c1cccc(NC(=O)c2cc(C)nc3c2c(C)nn3-c2ccc(C)cc2)c1 -16.6%, COc1cc(Nc2nc3ccc(Cl)cc3nc2-n2nc(C)cc2C)cc(OC)c1 -1%, O=C(CN1C(=O)COc2ccc(S(=O)(=O)NC3CCCC3)cc21)NCc1ccccc1Cl -1.07%, Cn1ncc2c(Nc3cccc(C#N)c3)ncnc21 -12.7%, CCc1cccc(C)c1NC(=O)CSc1n[nH]c(-c2ccccc2)n1 13.2%, COc1cc(NC(=O)CCN2CCN(c3ccccc3)CC2)cc(OC)c1 10.2%, Cc1cc(C)cc(NC(=O)C(=O)NCC(c2cccnc2)N2CCOCC2)c1 (stereo unspecified) -18%, Cc1ccccc1OCCSc1nnc(-c2cccs2)o1 -0.453%, CCC(C(=O)NCCC(C)C)N(C(=O)Cn1nnc(-c2ccc(C)cc2)n1)c1cccc(O)c1 (stereo unspecified) 0.284%, Cc1ccc(NC(=O)Cn2c(=O)n(CCC(C)C)c(=O)c3cccnc32)cc1C -1.22%, COc1ccc(Cl)cc1NC(=O)Cn1c(=O)n(Cc2ccc(F)cc2)c(=O)c2cccnc21 -1.51%, CC1CN(C(=O)N2CCC(C(=O)NCc3ccccc3F)CC2)c2cc(Cl)ccc2O1 (stereo unspecified) 1.56%, COc1ccccc1N1CCN(C(=O)Cn2c(=O)nc(-c3ccccc3)c3ccccc32)CC1 0%, CCOc1ccc(NC(=O)C(C)n2c(=O)cc(-c3ccccc3)c3c(C)nn(C)c32)cc1 (stereo unspecified) -13.4%, CCOC(=O)c1c(C)[nH]c(C)c1S(=O)(=O)N1CCCC(C(=O)N2CCN(c3cccc(Cl)c3)CC2)C1 (stereo unspecified) -2.95%, Cc1ccc2nc(-c3ccc(C)s3)c(Nc3ccc4c(c3)OCCO4)n2c1 -0.654%, COc1ccc(CCNC(=O)CN(c2ccccc2)S(=O)(=O)N(C)C)cc1 0.165%, COc1ccccc1-c1nn(CCC(=O)Nc2ccccc2)c2nc(C)cc(C)c12 -0.686%, O=C(NCc1ccccc1Cl)c1ccc2c(c1)NC(=O)C(CS(=O)(=O)Cc1ccc(Cl)cc1)N2 (stereo unspecified) 4.35%, O=C(Nc1ccc(F)c(F)c1)C(c1ccccc1)N1Cc2ccccc2C1=O (stereo unspecified) -5.5%, CCN(CC)CCNC(=O)c1cc2c(-c3cccc(OC)c3)nn(C)c2s1 -0.0503%, Cc1ccc(C(=O)N2CCN(CCc3ccncc3)CC2)cc1 -0.265%, CCOc1ccccc1NC(=O)Cn1c(=O)n(CCCC(=O)NCc2ccc(C)cc2)c(=O)c2ccccc21 2.09%, Cc1cccc2sc(N(Cc3cccnc3)C(=O)c3ccco3)nc12 -1.7%, COc1ccccc1OCC(=O)NCCS(=O)(=O)N1CCN(c2ccccc2OC)CC1 1.07%, Cc1nn(C(C)C(=O)NCc2ccco2)c(=O)c2nn(-c3ccccc3)c(C)c12 (stereo unspecified) -0.0337%, COc1ccc(S(=O)(=O)Nc2cccc(-c3ccc(N4CCCCC4)nn3)c2)cc1F -1.39%, CN1C(=O)c2ccccc2Sc2ccc(NC(=O)N3CCN(c4ccc(F)cc4)CC3)cc21 -23.5%, COc1ccc(-c2nc(S(=O)(=O)c3ccccc3)c(N3CCC(C)CC3)o2)cc1 15.6%, COc1ccc(NC(=O)C(NS(=O)(=O)c2cccc3nsnc23)C(C)C)cc1OC (stereo unspecified) -1.72%, CCOc1ccc(CNC(=O)c2cc3cc(S(=O)(=O)N4CCCCC4)ccc3n2C)cc1 -17.9%, COc1ccc(C(=O)NCCc2csc(-c3ccc(Cl)cc3)n2)c(OC)c1 -0.355%, Cc1ccc(Cl)cc1-n1c(SCC(=O)NCc2ccccc2)nc2n[nH]c(C)c2c1=N -4.01%, CSc1ccc(CCNC(=O)CN2C(=O)COc3ccc(S(=O)(=O)N4CCCCCC4)cc32)cc1 -1.84%, COc1cccc(Nc2nc3c(S(=O)(=O)c4cc(C)ccc4C)nnn3c3ccsc23)c1 1.83%, O=C(CN1c2ccc(Br)cc2-c2ccccc2S1(=O)=O)N1CCCCC1 -9.4%, CC(=O)Nc1c(C)nn(-c2ccccc2)c1N1CCC(C(=O)Nc2ccccc2C(F)(F)F)CC1 2.65%, Cc1ccc(NC(=O)N2CCN(Cc3nc4ccc(C)cc4o3)CC2)cc1 6.83%, Cc1cc(=O)c2cc(C(=O)Nc3ccc(F)cc3)ccc2[nH]1 -1.07%, CCOC(=O)N1CCN(S(=O)(=O)N2CCCC(C(=O)NCc3cc(Br)ccc3OC)C2)CC1 (stereo unspecified) 6.81%, Cc1cc(C)c(NC(=O)CSC2=Nc3ccccc3C3=NC(CC(=O)NCc4cccs4)C(=O)N23)c(C)c1 (stereo unspecified) -2.88%, O=C(Cn1c(-c2cccs2)cc2cc(F)ccc21)N1CCN(c2ccccc2)CC1 5.91%, COc1ccc(C)cc1-n1nnc(S(=O)(=O)c2ccc(C)cc2)c1C -3.21%, COc1ccc2c(C)c(CCC(=O)NCc3ccccc3OC)c(=O)oc2c1 -8.17%, Cc1cccn2c(=O)c(C(=O)NC(C)c3ccccc3)c(O)nc12 (stereo unspecified) -0.652%, CCOc1ccc(Nc2oc(/C=C/c3ccc(OC)c(OC)c3)nc2C#N)cc1 -17.5%, O=C(c1ccccc1Cl)N1CCC(c2nc3ccccc3s2)CC1 -9.53%, CCN(CC)S(=O)(=O)c1ccc(C(=O)NC2CC(=O)N(c3ccc(OC)c(OC)c3)C2)cc1 (stereo unspecified) -1.54%, Cc1ccc(N(CC(=O)NCCSc2ccccc2)S(=O)(=O)c2ccc(F)cc2)cc1 14.6%, CC(=O)c1ccc(NC(=O)c2cc3sccc3n2Cc2ccc(Cl)cc2)cc1 8.96%, O=C(COc1ccc(Cl)cc1)NCC(c1ccco1)S(=O)(=O)c1ccc(F)cc1 (stereo unspecified) -3.84%
